In US8741944B2, “Anti-infective agents against intracellular pathogens” (priority 2007, dated 2014):

Tested on: NCI-H322M (Non-Small Cell Lung Cancer)

Compound | GI50 [µM] | TGI | Percent Growth (Log10 Concentration −4.0) [%] | Percent Growth (Log10 Concentration −5.0) [%] | Percent Growth (Log10 Concentration −6.0) [%] | Percent Growth (Log10 Concentration −7.0) [%] | Percent Growth (Log10 Concentration −8.0) [%] | Mean Optical Densities (Log10 Concentration −4.0) | Percent Growth (Log10 Concentration −4.0 (head prints −6.0)) [%] | Mean Optical Densities (Log10 Concentration −5.0) | Mean Optical Densities (Log10 Concentration −6.0) | Mean Optical Densities (Log10 Concentration −7.0) | Mean Optical Densities (Log10 Concentration −8.0)
4-[5-(2-Phenanthrenyl)-3-(trifluoromethyl)-1H-pyrazol-1-yl]-phenyl -guanidine [Compound 71] | 1.36 | 2.64E−06 | −59 | −100 | 73 | 76 | 65 | – | – | – | – | – | –
NCC(=O)Nc1ccc(-n2nc(C(F)(F)F)cc2-c2ccc3c(ccc4ccccc43)c2)cc1 [Compound 70, 2-Amino-N-{4-[5-(2-phenanthrenyl)-3-(trifluoromethyl)-1H-pyrazol-1-yl]-phenyl}-acetamide] | – | 2.18E−06 | – | −84 | 43 | 51 | – | 0.269 | −57 | 0.100 | 1.420 | 1.562 | 1.363

Like-named read-outs stand apart in the source and are kept apart here.
